In all, about 310,000 compounds went through this assay and about 14,000 (4.5%) showed an effect of 50% or more. Effects have a minus sign here. This is one part of the list.
target: human ether-à-go-go-related gene (hERG) potassium channel (human, UniProt Q12809); experiment: primary screen, population patch clamp on CHO cells stably expressing hERG
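Note: peak tail current of the secondary pulse compared with the same well before compound.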

Chain of human ether-à-go-go-related gene (hERG) potassium channel (Q12809 whole entry, looked up): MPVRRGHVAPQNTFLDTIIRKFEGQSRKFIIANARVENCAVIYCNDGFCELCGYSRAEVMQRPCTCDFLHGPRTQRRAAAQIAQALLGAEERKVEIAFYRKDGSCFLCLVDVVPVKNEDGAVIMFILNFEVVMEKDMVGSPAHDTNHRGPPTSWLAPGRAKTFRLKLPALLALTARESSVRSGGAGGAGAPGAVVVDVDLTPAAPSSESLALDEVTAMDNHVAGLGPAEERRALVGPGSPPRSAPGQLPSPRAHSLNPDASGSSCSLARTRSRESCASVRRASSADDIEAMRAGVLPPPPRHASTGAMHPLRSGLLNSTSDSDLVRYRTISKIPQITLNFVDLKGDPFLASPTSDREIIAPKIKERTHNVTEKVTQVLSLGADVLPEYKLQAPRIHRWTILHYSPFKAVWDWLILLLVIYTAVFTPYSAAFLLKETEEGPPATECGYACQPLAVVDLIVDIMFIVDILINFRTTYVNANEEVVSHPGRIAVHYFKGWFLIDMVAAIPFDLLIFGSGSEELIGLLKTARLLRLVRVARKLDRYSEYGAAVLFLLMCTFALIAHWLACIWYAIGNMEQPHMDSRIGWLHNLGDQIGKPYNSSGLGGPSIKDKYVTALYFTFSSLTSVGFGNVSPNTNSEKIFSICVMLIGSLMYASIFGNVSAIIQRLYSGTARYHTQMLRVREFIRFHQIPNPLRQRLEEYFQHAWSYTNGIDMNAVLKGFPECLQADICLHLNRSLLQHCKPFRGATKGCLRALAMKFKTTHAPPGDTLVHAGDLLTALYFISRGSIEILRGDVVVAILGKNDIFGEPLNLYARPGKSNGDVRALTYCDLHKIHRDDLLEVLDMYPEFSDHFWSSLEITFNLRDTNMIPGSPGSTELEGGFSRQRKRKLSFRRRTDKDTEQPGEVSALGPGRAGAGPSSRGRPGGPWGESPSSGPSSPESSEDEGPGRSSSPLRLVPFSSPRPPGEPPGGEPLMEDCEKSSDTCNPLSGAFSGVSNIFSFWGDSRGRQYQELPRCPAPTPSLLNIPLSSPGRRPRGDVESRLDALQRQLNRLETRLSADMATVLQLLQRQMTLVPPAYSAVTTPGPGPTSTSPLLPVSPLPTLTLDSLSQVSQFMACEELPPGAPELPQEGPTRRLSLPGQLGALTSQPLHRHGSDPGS

Compound | hERG current change (%, negative = inhibition) at 10uM
Cc1cccn2c(=O)c(C=O)c(N3CCSCC3)nc12 | -6.43%
COc1cc(OC)cc(-c2nnc(SCC(=O)N3CCOCC3)o2)c1 | 9.82%
CCS(=O)(=O)N1CCCC(C(=O)NC2CCC(C)CC2)C1 (centres unmarked) | 6.05%
CCC(C)C(NS(=O)(=O)c1ccc(C)cc1)C(=O)O (centres unmarked) | 7.19%
COC(=O)Cn1c(=O)c(C(=O)CCl)c(N)n(Cc2ccccc2)c1=O | -0.133%
CCN(C(=O)COC(=O)CCCOc1ccccc1)c1c(N)n(Cc2ccccc2)c(=O)[nH]c1=O | 15.4%
CCOC(=O)c1cnc(Nc2nc3ccccc3o2)nc1CSc1ncccn1 | -6.54%
CCn1nnc(NC(=O)c2cccc(-c3cc4ccccc4oc3=O)c2)n1 | -12.8%
COc1ccccc1NC(=O)CCn1c(=O)sc2ccccc21 | -13%
COCCCNC(=O)C1CCN(S(=O)(=O)N(CC(C)C)CC(C)C)CC1 | 13.4%
COc1ccc(N2CCN(Cc3nnc(-c4ccccc4)o3)CC2)cc1 | -0.362%
O=C(OCn1ncc(Cl)c(Cl)c1=O)c1ccccc1Cl | -3.88%
CCOc1ccc(C(C(=O)NCC2CCCO2)N(C(=O)c2snc(C(N)=O)c2N)c2cccc(F)c2)cc1 (centres unmarked) | 12.5%
COC(=O)C1=C(NC(=O)c2ccc(C)c(C)c2)CCS1 | 23.5%
CC1(C)SC(=S)N(/N=C/c2cccnc2)C1N(O)C(=O)NC1CCCCC1 (centres unmarked) | 16.1%
Cc1cc([N+](=O)[O-])c2c(c1C)C1C=CCC1C(c1ccccn1)N2 (centres unmarked) | 20.4%
CCCCN1C(C(=O)Nc2ncccn2)=C(O)c2ccccc2S1(=O)=O | -3.2%
CCn1c(CNC(=O)c2ccco2)nnc1SCC(=O)Nc1ccccc1Cl | 7.05%
COc1ccc(CCNc2nc(-c3ccccn3)cs2)cc1OC | 11.5%

Compound | hERG current change (%, negative = inhibition) at 10uM
Cc1cc(C)n(-c2ccc(C(=O)Oc3ccc4c(c3)OCO4)cc2)n1 | 4.25%
CCOC(=O)c1ccc(-c2ccc(CO)o2)cc1 | -6.44%
Cc1noc(/C=C/c2cccs2)c1S(=O)(=O)N1CCC(C(=O)NCCCN2CCCC(C)C2)CC1 (centres unmarked) | -44.5%
CC1=NN(C(=O)c2ccccc2Cl)C(O)(c2ccccc2)C1 (centres unmarked) | 14.8%
CC(=O)Nc1sc2c(c1C(=O)N1CCOCC1)CCCCC2 | 17.9%
COc1ccc(CC(=O)Nc2cccc(S(=O)(=O)N3CCCCCC3)c2)cc1OC | -10.8%
COc1ccccc1C(=O)NC(=O)CSc1nncn1C(C)C | -4.53%
CCOC(=O)/C(=N\O)C1=NC(C)(C)Cc2ccccc21 | 9.1%
Cc1ccc(C(=O)C2CCN(C(=S)NCCCOC(C)C)CC2)cc1 | -27.7%
COC(=O)c1cc(COC(=O)c2ccc3ccccc3n2)oc1C | -6.04%
COc1ccccc1-n1c(=O)c(C#N)c(-c2ccc([N+](=O)[O-])cc2)c2cc(C(=O)c3cc(F)ccc3O)cnc21 | -4.93%
C=CCSc1nc(N2CCOCC2)c2c(c1C#N)CC(C)(C)N(C)C2 | -34.5%
CCOC(=O)c1c(NC(=O)COC(=O)c2nccnc2N)sc(C(=O)N(C)C)c1C | -18.8%
O=C(OCc1ccc(Cl)cc1Cl)c1ccncc1 | 3.71%
O=C(C1CCN(S(=O)(=O)c2cnc[nH]2)CC1)N1CCn2c1nc1ccccc12 | -3.78%
COc1ccc(-c2nsc(C(=O)N(c3ccc(F)cc3)C(C(=O)NC3CCCC3)c3ccc(OC)cc3)c2N)cc1 (centres unmarked) | 9.69%
CCCN(C(=O)c1cccc(S(=O)(=O)N2CCN(C)CC2)c1)c1c(N)n(Cc2ccccc2)c(=O)[nH]c1=O | 0.795%
Cc1cc(C)c(CN2CCC(N3CCC(C(=O)NCC4CCCO4)CC3)CC2)cc1C (centres unmarked) | -24.4%
CCOc1cc(/C=N/n2cnnc2)ccc1OS(=O)(=O)c1ccc(C)cc1 | -50.5%

Compound | hERG current change (%, negative = inhibition) at 10uM
O=C(CSc1ccc(F)cc1)Nc1nnc(-c2ccco2)o1 | 1.86%
COC(=O)c1cccc(-n2sc3ccccc3c2=O)c1 | 17.3%
Cc1nn(C)c(C)c1/C=N/O | 11.6%
Cc1ccc(S(=O)(=O)N2CCC(=O)N(C(COCc3cccc(Cl)c3)C(C)C)CC2)cc1 (centres unmarked) | -35.2%
O=C(CSC1=Nc2ccccc2C2=NC(CC(=O)NC3CCCCC3)C(=O)N12)NCc1ccco1 (centres unmarked) | -29.9%
Cc1ccc(NC(=O)c2c(-c3ccccc3)noc2C)nc1 | 12.2%
COc1cc(C2NC(=S)NC(C)=C2C(=O)OC(C)C)ccc1OC(C)C (centres unmarked) | -8.79%
COc1ccccc1NC(=O)Nc1ncccc1C | -1.09%
Cc1ccc(Cn2c(N3CCN(C)CC3)nc3c2c(=O)[nH]c(=O)n3C)cc1 | -14.9%
C/C(=N\NC(=O)c1ccc(F)cc1)c1cccc(NC(=O)c2cccc(F)c2)c1 | 21.3%
COc1cc(C(=O)NCCOc2ccccc2C)cc(OC)c1OC | 11.3%
Cl.c1ccc(CSC2=NCCCN2)cc1 | 13.9%
COc1ccc(CC(=O)NNC(=O)c2cccs2)cc1 | 0.706%
COc1ccc(CCNC(=O)COc2ccc(S(=O)(=O)N3CCCC3)cc2)cc1 | -6.68%
Cc1cccc(C(=O)N[C@H](C(=O)Nc2nc3ccc(S(C)(=O)=O)cc3s2)C(C)C)c1 | -20.5%
O=C(c1ccccc1Cl)N1CCC(N2CCC(C(=O)N3CCCC3)CC2)CC1 | -12.4%
O=C(Nc1cccc(C(F)(F)F)c1)/C(=C\c1ccco1)NC(=O)c1cccs1 | -19.2%
O=C(Cn1cnc2ccccc21)Nc1ccc(SC(F)F)cc1 | -43.6%
